Measurements taken from publication PMC12040169 (PLOS Biology, 2025).
The other results are listed elsewhere or left out.

Each compound was assayed on T1, C. trachomatis L2/434/Bu expressing GFP (CTL2-GFP). Details: total inclusion area; 28.5 h, 10 µM; inhibitor.
T1 construct: L2/434/Bu GFP intracellular growth in HeLa cells
Set-up: species or system HeLa; C. trachomatis total inclusion area by high-content imaging, normalised to DMSO
How it was run: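 Host cell viability was gauged from Hoechst-stained nuclei counts, while chlamydial growth was taken from total inclusion area and inclusion number per well. Cells were fixed and imaged by high-content microscopy once bulk GFP and resorufin fluorescence had been measured.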

Compound	% of control remaining
O=C1C=C(c2ccc([N+](=O)[O-])cc2)Nc2nonc2N1 [CBK261487]	95.606
Cc1ccc(C2CCCN2C(=O)c2ccc(=O)n(CC(=O)Nc3ccc(F)cc3)c2)cc1C (stereo not shown) [CBK286088]	124.314
Cc1ccc(C2(O)CCN(Cc3cn(C)nc3C)CC2)cc1 [CBK282753]	117.669
COCCNc1nccnc1-c1cnc(OC)nc1OC [CBK088558]	83.3534
Cc1ccc2[nH]c(C3CCCCN3C(=O)c3cscn3)nc2c1 (stereo not shown) [CBK283999]	70.5276
Cc1ccc(S(=O)(=O)N=C2NCN(C)CN2)cc1 [CBK261972]	94.0653
CC(C)(C)OC(=O)N1CCC(Oc2cncc(Cl)n2)CC1 [CBK001762]	78.3702
CC(=O)N1c2ccccc2C(C)=CC1C1CCCC(=O)C1 (stereo not shown) [CBK007219]	83.3586
Cc1ccc(NC(=O)Cc2cn(C)c3ccccc23)c(C)n1 [CBK200298]	100.303
CC(C)Nc1ncnc2scc(-c3cccs3)c12 [CBK017085]	75.2349
CC(C)(C)c1cc(CN(Cc2cc(C(C)(C)C)c(O)c(C(C)(C)C)c2)/N=C\c2ccccc2O)cc(C(C)(C)C)c1O [CBK261990]	101.652
CC(=O)OC(COc1cccc(Cl)c1)Cn1cnc2cc(C)c(C)cc21 (stereo not shown) [CBK266152]	81.671
Cc1ncsc1CCS(=O)(=O)N1CCOCC1c1cccc(F)c1 (stereo not shown) [CBK304254]	57.4873
CN1CCc2c(C#N)c(N)n(N)c(=S)c2C1 [CBK264055]	110.726
CC(=O)N1CCc2c(sc3nc(N)c(C(=O)NCCc4ccc(F)cc4)c(C(F)(F)F)c23)C1 [CBK269176]	118.529
COc1cc(OCc2ccccc2)ccc1CN1CCN(Cc2ccccc2)CC1 [CBK074766]	84.4922
CC1CNCCN1C(=O)c1cnn(-c2cccc(Cl)c2)c1 (stereo not shown) [CBK304238]	50.2602
O=C(NCc1c(O)c(Cl)cc(Cl)c1Cl)c1ccccc1 [CBK260920]	83.7662
Cc1oc2ccccc2c1CN(CCN(C)C)Cc1ccncc1 [CBK283097]	85.7572
Cc1cc(NS(=O)(=O)c2cnn(-c3ccccc3)c2C)n(C)n1 [CBK067252]	90.5425
OCCN(Cc1cccnc1)Cc1cccn1Cc1ccccc1F [CBK282945]	119.262

Compound	% of control remaining
COc1ccc(-c2nc3ccccc3o2)cc1NC(=O)C(C)Oc1ccc(Cl)cc1Cl (stereo not shown) [CBK266787]	63.492
O=C(NCCCn1ccnc1)c1ccccc1C(=O)c1ccccc1 [CBK262954]	98.9306
O=C(NCc1ccccn1)c1nn[nH]c1Nc1cccc(Cl)c1 [CBK288030]	62.7377
COC(=O)c1c(NC(=O)C(=O)NCc2ccccn2)sc2c1CCC2 [CBK269431]	86.4106
O=C(Nc1ccsc1C(=O)O)c1ccccc1Cl [CBK152440]	63.5358
Cc1c(CN2CCCC(n3cnc4cc(F)ccc43)C2)cnn1C (stereo not shown) [CBK284478]	116.249
NS(=O)(=O)c1ccc2nc(NC(=O)c3ccc(N4C(=O)CCC4=O)cc3)sc2c1 [CBK291192]	55.3917
N#Cc1ccccc1CSc1nc2ccc([N+](=O)[O-])cc2[nH]1 [CBK269589]	87.9729
FC(F)(F)Oc1cccc(-c2cncc(NCc3cccs3)n2)c1 [CBK065909]	102.479
COc1ccc(Cl)cc1S(=O)(=O)N1CCC(C(=O)NCCO)CC1 [CBK270002]	83.1326
COc1cc(NC(=O)N2CCN(c3cc(C(F)(F)F)ccn3)CC2)cc(OC)c1OC [CBK162349]	92.5151
CCCCN(C)c1c(C)nc2c(Oc3ncccn3)cccn12 [CBK147190]	105.757
COc1cccc(C2C(C(=O)c3ccc(Cl)cc3)=C(O)C(=O)N2CCCN2CCOCC2)c1 (stereo not shown) [CBK264865]	92.6886
Fc1ccc(CSc2nnc(-c3ccccn3)[nH]2)cc1 [CBK270074]	78.012
NC(=O)c1ccccc1NC(=O)CN1CCN(Cc2cccc(F)c2)CC1 [CBK270292]	91.6498
O[C@H](CNCc1ccccc1)COc1cccc2c1C1CCC2CC1 [CBK000370]	50.7559
CCNc1cc2ccccc2c(-c2ccc3c(c2)OCCCO3)n1 [CBK089641]	101.356
OCc1cccc2c3c(n(Cc4ccccc4)c12)CCCC3 [CBK004693]	86.7692
Cc1nc2ccccc2n1CC(O)COc1ccccc1 (stereo not shown) [CBK288084]	72.8786
OCCc1ccc(Nc2cc(-c3ccco3)ncn2)cc1 [CBK090771]	115.872
O=C(C1CCCC1)N1CCCC1c1nc2ccccc2[nH]1 (stereo not shown) [CBK282378]	113.385

Compound	% of control remaining
COc1ccc2cc(Br)ccc2c1CC(=O)Nc1ccccc1[N+](=O)[O-] [CBK268823]	114.399
OCc1nc(-c2cccnc2)co1 [CBK018811]	80.1932
Cc1cc(=O)oc2cc(SCc3ccc(Cl)s3)ccc12 [CBK002898]	84.577
O=S(=O)(Nc1ccccc1)c1ccccc1I [CBK057566]	81.5311
CCCS(=O)(=O)Nc1nccnc1-c1ccc(Oc2ccccc2)cc1 [CBK050908]	85.8264
Cc1ccc(-c2c(N3C(=O)c4cccnc4C3=O)n[nH]c2C)cc1 [CBK288199]	56.2789
COc1ccc(CNc2nccs2)c(O)c1 [CBK265690]	108.765
CCn1cc(C2CN(S(=O)(=O)c3ccc(F)c(C)c3)CCO2)cn1 (stereo not shown) [CBK305419]	96.4177
Cc1cc2[nH]c(=O)oc2cc1S(=O)(=O)NCCN1CCCCC1CO (stereo not shown) [CBK307307]	99.2161
COc1ccc(C)cc1N(C(=O)c1ccccn1)c1nc2ccccc2s1 [CBK297944]	99.5951
Cc1csc2c(N3CCSCC3)ncnc12 [CBK009169]	22.9081
COc1ccc(-c2cncc(N3CCCC3CO)n2)cc1 (stereo not shown) [CBK037223]	96.6231
CC(C)(C)OC(=O)N1CCC(COc2ccc(-c3ccc(S(C)(=O)=O)cc3)nc2)CC1 [CBK167839]	63.0734
CCS(=O)(=O)Nc1cc([N+](=O)[O-])ccc1OC [CBK111343]	57.9518
CNC(=O)c1ccc(-c2cc(C)cs2)nc1N(C)C [CBK106150]	88.8275
Cc1cc(=O)oc2cc(Sc3sccc3[N+](=O)[O-])ccc12 [CBK002936]	21.6722
COc1ccc(Br)cc1S(=O)(=O)Nc1cccc(C(=O)Nc2ccc(F)cc2)c1 [CBK038981]	77.5849
FC(F)(F)c1cnc(Oc2ccc(-n3ccnc3)cc2)c(Cl)c1 [CBK161625]	87.7877
O=C(NC1CCN(Cc2c(F)cccc2Cl)CC1)C1CCN(C(=O)OCc2ccccc2)CC1 [CBK074720]	75.3103
CCc1nn(Cc2ccccn2)c(=O)c2cc3sc(C)cc3n12 [CBK284113]	125.732
CNC(=O)C1(Cc2ccc(-c3ccccc3)cc2)CCN(C(=O)C2CCCCC2)CC1 [CBK285762]	122.386

Compound	% of control remaining
Cc1nnc([C@H]2CCN(Cc3ccc4c(c3)OCO4)C2)o1 [CBK289392]	93.013
O=C1CCC(=O)N1CCOc1nccnc1OC1CCN(CCc2ccc3ccccc3c2)CC1 [CBK084358]	92.5766
Cn1cc(C(c2ccc(OCC(=O)O)cc2)c2cn(C)c3ccccc23)c2ccccc21 [CBK266403]	0.281
C/C=C/c1ccc(OCCCSc2nc(C)cc(O)n2)c(OC)c1 [CBK267413]	108.401
Cc1ccccc1OCC(=O)NCc1ccc(C(=O)O)cc1 [CBK287155]	97.7441
CN1CCC[C@H]1COc1ncccc1OCCO [CBK042185]	89.4224
c1ccc(-c2nnc3ccccc3c2N2CCNCC2)cc1 [CBK066888]	0.3069
Cc1cc(C)c(OCC(=O)Nc2cc(-c3nc4ncccc4o3)ccc2C)c(Cl)c1 [CBK072887]	87.5317
O=C(Nc1cc(Oc2ccc(Cl)cc2)cc([N+](=O)[O-])c1)c1cnn2c(C(F)F)cc(C3CC3)nc12 [CBK268925]	128.602
Cc1sc(C(N)=O)cc1[N+](=O)[O-] [CBK066863]	98.7783
CC(N)C1CCCN(S(=O)(=O)c2ccc(OCc3ncnn3C)cc2)C1 (stereo not shown) [CBK304105]	109.074
CCOc1cccc(CN2CCCCC2c2[nH]ncc2C(N)=O)n1 (stereo not shown) [CBK304750]	48.4123
COc1ccc2oc(=O)c(C(=O)Nc3cccc(O)c3)cc2c1 [CBK270070]	104.588
COc1cc(OC)nc(C(NC(=O)C2CCN(Cc3ccc(N(C)C)cc3)CC2)c2ccc(F)cc2)n1 (stereo not shown) [CBK148204]	86.9744
Cc1c(C(=O)N(C)CCc2ccncc2)[nH]c2ccccc12 [CBK283271]	92.4216
CCC(=O)c1c(CC)n[nH]c1-c1c(Cl)cccc1Cl [CBK107819]	122.27
CN1CCC(N2CCN(C(=O)NCc3cccnc3)CC2)CC1 [CBK155889]	91.2299
Nc1ccc2ccc(-c3ccc4c(c3)CCO4)nc2n1 [CBK067625]	101.016
COc1ccc(CN2CCN(C(=O)c3cccc(F)c3)CC2)c(OC)c1OC [CBK074523]	84.0422
